{"source": "the supplement of paper PMC3334620", "note": "Whole data set: some 33,000 sequences, median “E-score (-0.5 to 0.5)” near -0.036, cut for the highest 2% near 0.37. Some of the results follow.", "data": [{"biological_target": "T1, Yer064c (UniProt P40041)", "T1 sequence": "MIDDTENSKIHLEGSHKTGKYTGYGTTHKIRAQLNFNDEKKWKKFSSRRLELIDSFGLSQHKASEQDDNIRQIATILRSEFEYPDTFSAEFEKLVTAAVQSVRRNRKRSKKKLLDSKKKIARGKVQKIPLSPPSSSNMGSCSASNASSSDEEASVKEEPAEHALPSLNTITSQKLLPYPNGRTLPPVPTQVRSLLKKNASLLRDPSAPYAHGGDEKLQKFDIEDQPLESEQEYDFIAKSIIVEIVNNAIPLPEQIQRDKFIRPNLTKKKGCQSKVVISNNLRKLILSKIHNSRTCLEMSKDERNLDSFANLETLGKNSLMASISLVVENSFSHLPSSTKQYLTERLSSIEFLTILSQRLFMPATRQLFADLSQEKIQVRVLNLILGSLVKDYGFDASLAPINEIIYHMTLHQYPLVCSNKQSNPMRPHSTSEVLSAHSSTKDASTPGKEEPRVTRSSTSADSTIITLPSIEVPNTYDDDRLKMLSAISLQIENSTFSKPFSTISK", "assay": "PBM E-score (8-mer binding enrichment) (E-score (-0.5 to 0.5)); higher = stronger / more preferred TF binding; most listed sequences are background and not binding sites", "conditions": "protein concentration: 200 nM; construct: GST-full length", "outline": "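Yeast transcription factors carrying a GST tag, as full-length proteins or DNA-binding domains, were produced by PURExpress in vitro transcription/translation. About 100-200 nM protein was applied to universal all-10-mer Agilent arrays, double-stranded by primer extension on fresh or once-stripped slides. Bound protein was detected with fluorescent anti-GST, and scans were normalised with masliner. The Universal PBM Analysis Suite gave each ungapped eight-base word, pooled with its reverse complement, an E-score, a modified Wilcoxon-Mann-Whitney statistic.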", "values": [{"sequence": "AATCTTTG", "PBM E-score": 0.123}, {"sequence": "CTACAAAA", "PBM E-score": 0.037}, {"sequence": "TTGTACAA", "PBM E-score": 0.018}, {"sequence": "AGGTAAAA", "PBM E-score": -0.084}, {"sequence": "GAAGTCGA", "PBM E-score": 0.0978}, {"sequence": "GATTCCCC", "PBM E-score": 0.146}, {"sequence": "AACTGTTG", "PBM E-score": -0.17}, {"sequence": "ATGGTTTG", "PBM E-score": 0.101}, {"sequence": "AAGCCGCA", "PBM E-score": -0.166}, {"sequence": "ATAGCAGA", "PBM E-score": 0.0187}, {"sequence": "GCTCTCAA", "PBM E-score": -0.0635}, {"sequence": "AGCCAAGC", "PBM E-score": -0.208}, {"sequence": "GGGGACTA", "PBM E-score": 0.235}, {"sequence": "CTGGTACA", "PBM E-score": -0.138}, {"sequence": "GGGAACCA", "PBM E-score": -0.0571}, {"sequence": "GAAAGGCC", "PBM E-score": -0.394}, {"sequence": "CAAAACAG", "PBM E-score": -0.0567}, {"sequence": "CCTTACTC", "PBM E-score": 0.167}, {"sequence": "AGGCGGAT", "PBM E-score": -0.0817}, {"sequence": "GCGGTGGA", "PBM E-score": -0.0982}, {"sequence": "CACTTCTC", "PBM E-score": -0.106}, {"sequence": "ATTGCGAC", "PBM E-score": 0.0486}, {"sequence": "CGGCTGAG", "PBM E-score": 0.183}, {"sequence": "CTCCCGAG", "PBM E-score": 0.0821}, {"sequence": "AGCTTATC", "PBM E-score": -0.166}, {"sequence": "CGAGTGCA", "PBM E-score": 0.00011}, {"sequence": "CTCGTAAG", "PBM E-score": 0.103}, {"sequence": "GCATGTAC", "PBM E-score": -0.169}, {"sequence": "GGTGAGCA", "PBM E-score": -0.00163}, {"sequence": "CATAGCAA", "PBM E-score": -0.0521}, {"sequence": "CGGTACCA", "PBM E-score": -0.231}, {"sequence": "CTTTACGA", "PBM E-score": -0.0652}, {"sequence": "ATATTAAA", "PBM E-score": 0.17}, {"sequence": "CCTGAAGC", "PBM E-score": -0.132}, {"sequence": "TGTTAAAA", "PBM E-score": 0.055}, {"sequence": "AAAAAGGA", "PBM E-score": 0.0045}, {"sequence": "TAAGGTGA", "PBM E-score": 0.267}, {"sequence": "AAGTCCTG", "PBM E-score": 0.179}, {"sequence": "ACGCAGGC", "PBM E-score": 0.00062}, {"sequence": "CGAAGTAG", "PBM E-score": -0.013}, {"sequence": "CCTAGGCA", "PBM E-score": -0.0973}, {"sequence": "CAGTAAAC", "PBM E-score": -0.14}, {"sequence": "ATGTACTG", "PBM E-score": 0.0673}, {"sequence": "ACGTTAGC", "PBM E-score": 0.0139}, {"sequence": "CTCAGGTA", "PBM E-score": 0.288}, {"sequence": "ACGGCTCC", "PBM E-score": 0.0866}, {"sequence": "ACAACGAC", "PBM E-score": 0.177}, {"sequence": "GAGGCCTC", "PBM E-score": -0.386}, {"sequence": "ATTAATAC", "PBM E-score": 0.175}, {"sequence": "ACGCAGTA", "PBM E-score": -0.223}, {"sequence": "CTCTGCTA", "PBM E-score": -0.152}, {"sequence": "CCGTGAGA", "PBM E-score": -0.101}, {"sequence": "GGATGTCA", "PBM E-score": -0.0973}, {"sequence": "ATGCTCAA", "PBM E-score": -0.0195}, {"sequence": "ATCACTGG", "PBM E-score": 0.16}, {"sequence": "CACGTTTC", "PBM E-score": -0.245}, {"sequence": "ATCTTGCG", "PBM E-score": 0.0337}, {"sequence": "GGACACAA", "PBM E-score": -0.0994}, {"sequence": "CAGTCGCG", "PBM E-score": 0.122}, {"sequence": "ATAGCGGG", "PBM E-score": -0.283}, {"sequence": "CCTACCAC", "PBM E-score": -0.303}, {"sequence": "CATCATAG", "PBM E-score": 0.25}, {"sequence": "ATGGGAAC", "PBM E-score": -0.0553}, {"sequence": "ATTCCGAA", "PBM E-score": 0.196}, {"sequence": "CCCTATCG", "PBM E-score": -0.194}, {"sequence": "ACTTAGTC", "PBM E-score": 0.435}, {"sequence": "CACGGAAC", "PBM E-score": -0.0467}, {"sequence": "GCATCTAA", "PBM E-score": -0.14}, {"sequence": "TCTAGCAA", "PBM E-score": 0.0733}, {"sequence": "CGTCCTTC", "PBM E-score": -0.0345}, {"sequence": "AGAAAGGC", "PBM E-score": -0.339}, {"sequence": "CGTATAGA", "PBM E-score": -0.0711}, {"sequence": "ACTGTAAG", "PBM E-score": -0.0222}, {"sequence": "ACTTAAAT", "PBM E-score": 0.228}, {"sequence": "CGCCCACC", "PBM E-score": -0.229}, {"sequence": "TCGTAGCA", "PBM E-score": 0.128}, {"sequence": "GTGTTAAC", "PBM E-score": 0.0749}, {"sequence": "TATAGTGA", "PBM E-score": 0.134}, {"sequence": "GGAGAGAC", "PBM E-score": -0.0739}, {"sequence": "ACTTAGAC", "PBM E-score": 0.239}, {"sequence": "GCCCTACA", "PBM E-score": -0.107}, {"sequence": "ATAAAGAT", "PBM E-score": 0.00329}, {"sequence": "AGCTTGTA", "PBM E-score": -0.0977}, {"sequence": "CTATGCGC", "PBM E-score": -0.209}, {"sequence": "AGCTCCTA", "PBM E-score": -0.135}, {"sequence": "GAGCATCA", "PBM E-score": -0.113}, {"sequence": "TCTGATCA", "PBM E-score": 0.111}, {"sequence": "GAGGGCTA", "PBM E-score": -0.193}, {"sequence": "TCTCGCAA", "PBM E-score": 0.129}, {"sequence": "GCTTTTCC", "PBM E-score": -0.171}, {"sequence": "CAACCTTC", "PBM E-score": -0.143}, {"sequence": "AGTAAGCA", "PBM E-score": -0.0325}, {"sequence": "ACTTTGAT", "PBM E-score": 0.173}, {"sequence": "GAGTGTTA", "PBM E-score": 0.0826}]}]}
